# In the supplement of paper PMC8728848:
# The list shows a part of the results.
# B1: AAL (Aleuria aurantia), P18891 (protein)
# chain: PTEFLYTSKIAAISWAATGGRQQRVYFQDLNGKIREAQRGGDNPWTGGSSQNVIGEAKLFSPLAAVTWKSAQGIQIRVYCVNKDNILSEFVYDGSKWITGQLGSVGVKVGSNSKLAALQWGGSESAPPNIRVYYQKSNGSGSSIHEYVWSGKWTAGASFGSTVPGTGIGATAIGPGRLRIYYQATDNKIREHCWDSNSWYVGGFSASASAGVSIAAISWGSTPNIRVYWQKGREELYEAAYGGSWNTPGQIKDASRPTPSLPDTFIAANSSGNIDISVFFQASGVSLQQWQWISGKGWSIGAVVPTGTPAGW
# What was measured:
# Experiment in all cases: glycan array binding signal (z-score within array); higher = stronger binding
# Conditions in all cases: glycan notation: IUPAC condensed, linker removed
# [1] = biological target: Fuc(a1-2)[Gal(a1-3)]Gal(b1-4)Glc
# In short: (§1)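 The binding signal is a Z-score computed within each array. Data were drawn from 3228 arrays in the Consortium for Functional Glycomics database, restricted to those with a known protein sequence. Scores were averaged over arrays of the same protein sequence at different concentrations or buffers, and over linkers, and negative values can be taken as non-binding.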
# [2] = biological target: Fuc(a1-2)[Gal(a1-3)]Gal(b1-4)GlcNAc
# In short: as §1
# [3] = biological target: Fuc(a1-2)[Gal(a1-3)]Gal(b1-4)GlcNAc(b1-2)Man(a1-3)[Fuc(a1-2)[Gal(a1-3)]Gal(b1-4)GlcNAc(b1-2)Man(a1-6)]Man(b1-4)GlcNAc(b1-4)GlcNAc
# In short: as §1
# [4] = biological target: Fuc(a1-2)[Gal(a1-3)]Gal(b1-4)GlcNAc(b1-2)Man(a1-3)[Fuc(a1-2)[Gal(a1-3)]Gal(b1-4)GlcNAc(b1-2)Man(a1-6)]Man(b1-4)GlcNAc(b1-4)[Fuc(a1-6)]GlcNAc
# In short: as §1
# [5] = biological target: Fuc(a1-2)[Gal(a1-3)]Gal(b1-4)GlcNAc(b1-3)GalNAc
# In short: as §1
# [6] = biological target: Fuc(a1-2)[Gal(a1-3)]Gal(b1-4)[Fuc(a1-3)]Glc
# In short: as §1
# [7] = biological target: Fuc(a1-2)[Gal(a1-3)]Gal(b1-4)[Fuc(a1-3)]GlcNAc
# In short: as §1
# [8] = biological target: Fuc(a1-2)[Gal(a1-3)]Gal(b1-4)[Fuc(a1-3)]GlcNAc(b1-3)GalNAc
# In short: as §1
# [9] = biological target: Fuc(a1-2)[Gal(a1-4)]Gal(b1-4)GalNAc
# In short: as §1
# [10] = biological target: Fuc(a1-2)[Gal(a1-4)]Gal(b1-4)GlcNAc
# In short: as §1
# [11] = biological target: Fuc(a1-2)[GalNAc(a1-3)]Gal
# In short: as §1
# [12] = biological target: Fuc(a1-2)[GalNAc(a1-3)]Gal(b1-3)GalNAc(a1-3)[Fuc(a1-2)]Gal(b1-4)GlcNAc
# In short: as §1
# [13] = biological target: Fuc(a1-2)[GalNAc(a1-3)]Gal(b1-3)GlcNAc
# In short: as §1
# [14] = biological target: Fuc(a1-2)[GalNAc(a1-3)]Gal(b1-3)GlcNAc(b1-2)Man(a1-3)[Fuc(a1-2)[GalNAc(a1-3)]Gal(b1-3)GlcNAc(b1-2)Man(a1-6)]Man(b1-4)GlcNAc(b1-4)GlcNAc
# In short: as §1
# [15] = biological target: Fuc(a1-2)[GalNAc(a1-3)]Gal(b1-3)GlcNAc(b1-3)GalNAc
# In short: as §1
# [16] = biological target: Fuc(a1-2)[GalNAc(a1-3)]Gal(b1-4)Glc
# In short: as §1
# [17] = biological target: Fuc(a1-2)[GalNAc(a1-3)]Gal(b1-4)GlcNAc
# In short: as §1
# [18] = biological target: Fuc(a1-2)[GalNAc(a1-3)]Gal(b1-4)GlcNAc(b1-2)Man(a1-3)[Fuc(a1-2)[GalNAc(a1-3)]Gal(b1-4)GlcNAc(b1-2)Man(a1-6)]Man(b1-4)GlcNAc(b1-4)GlcNAc
# In short: as §1
# [19] = biological target: Fuc(a1-2)[GalNAc(a1-3)]Gal(b1-4)GlcNAc(b1-3)Gal(b1-4)GlcNAc
# In short: as §1
# [20] = biological target: Fuc(a1-2)[GalNAc(a1-3)]Gal(b1-4)GlcNAc(b1-3)Gal(b1-4)GlcNAc(b1-3)Gal(b1-4)GlcNAc
# In short: as §1
# [21] = biological target: Fuc(a1-2)[GalNAc(a1-3)]Gal(b1-4)GlcNAc(b1-3)GalNAc
# In short: as §1
# [22] = biological target: Fuc(a1-2)[GalNAc(a1-3)]Gal(b1-4)[Fuc(a1-3)]GlcNAc
# In short: as §1
# [23] = biological target: Fuc(a1-2)[GalNAc(a1-3)]Gal(b1-4)[Fuc(a1-3)]GlcNAc(b1-3)GalNAc
# In short: as §1
# [24] = biological target: Fuc(a1-2)[GalNAc(a1-4)]Gal(b1-4)GlcNAc
# In short: as §1
# [25] = biological target: Fuc(a1-2)[GalNAc(b1-3)]Gal
# In short: as §1
# [26] = biological target: Fuc(a1-3)GlcNAc
# In short: as §1
# [27] = biological target: Fuc(a1-3)[Gal(b1-4)]Glc6S
# In short: as §1
# [28] = biological target: Fuc(a1-3)[Gal(b1-4)]GlcNAc
# In short: as §1
# [29] = biological target: Fuc(a1-3)[Gal(b1-4)]GlcNAc(b1-2)Man(a1-3)[Fuc(a1-3)[Gal(b1-4)]GlcNAc(b1-2)Man(a1-6)]Man(b1-4)GlcNAc(b1-4)GlcNAc
# In short: as §1
# [30] = biological target: Fuc(a1-3)[Gal(b1-4)]GlcNAc(b1-2)Man(a1-3)[Fuc(a1-3)[Gal(b1-4)]GlcNAc(b1-2)Man(a1-6)]Man(b1-4)GlcNAc(b1-4)[Fuc(a1-6)]GlcNAc
# In short: as §1
# [31] = biological target: Fuc(a1-3)[Gal(b1-4)]GlcNAc(b1-3)Gal(b1-3)[Fuc(a1-4)]GlcNAc
# In short: as §1
# [32] = biological target: Fuc(a1-3)[Gal(b1-4)]GlcNAc(b1-3)GalNAc
# In short: as §1
# [33] = biological target: Fuc(a1-3)[Gal(b1-4)]GlcNAc(b1-4)Gal(b1-4)[Fuc(a1-3)]GlcNAc
# In short: as §1
# [34] = biological target: Fuc(a1-3)[Gal(b1-4)]GlcNAc(b1-4)Gal(b1-4)[Fuc(a1-3)]GlcNAc(b1-4)Gal(b1-4)[Fuc(a1-3)]GlcNAc
# In short: as §1
# [35] = biological target: Fuc(a1-3)[Gal(b1-4)]GlcNAc(b1-6)[Gal(b1-3)GlcNAc(b1-3)]Gal(b1-4)Glc
# In short: as §1
# [36] = biological target: Fuc(a1-3)[Gal(b1-4)]GlcNAc6S
# In short: as §1
# [37] = biological target: Fuc(a1-3)[Gal3S(b1-4)]Glc
# In short: as §1
# [38] = biological target: Fuc(a1-3)[Gal3S(b1-4)]Glc6S
# In short: as §1
# [39] = biological target: Fuc(a1-3)[Gal3S(b1-4)]GlcNAc
# In short: as §1
# [40] = biological target: Fuc(a1-3)[Gal3S(b1-4)]GlcNAc6S
# In short: as §1
# [41] = biological target: Fuc(a1-3)[GalNAc(b1-4)]Gal(b1-4)GlcNAc
# In short: as §1
# [42] = biological target: Fuc(a1-3)[GalNAc(b1-4)]GlcNAc
# In short: as §1
# [43] = biological target: Fuc(a1-4)GlcNAc
# In short: as §1
# [44] = biological target: Fuc(b1-3)GlcNAc
# In short: as §1
# [45] = biological target: Gal(a1-2)Gal
# In short: as §1
binder,measurement,setting,value
B1,glycan array binding signal (z-score),[1],0.091
same,glycan array binding signal (z-score),[2],-0.009
same,glycan array binding signal (z-score),[3],-0.368
same,glycan array binding signal (z-score),[4],0.377
same,glycan array binding signal (z-score),[5],-0.435
same,glycan array binding signal (z-score),[6],0.528
same,glycan array binding signal (z-score),[7],0.529
same,glycan array binding signal (z-score),[8],-0.084
same,glycan array binding signal (z-score),[9],1.5
same,glycan array binding signal (z-score),[10],2.42
same,glycan array binding signal (z-score),[11],1.83
same,glycan array binding signal (z-score),[12],-0.435
same,glycan array binding signal (z-score),[13],-0.512
same,glycan array binding signal (z-score),[14],-0.432
same,glycan array binding signal (z-score),[15],-0.417
same,glycan array binding signal (z-score),[16],-0.14
same,glycan array binding signal (z-score),[17],-0.289
same,glycan array binding signal (z-score),[18],-0.399
same,glycan array binding signal (z-score),[19],-0.392
same,glycan array binding signal (z-score),[20],-0.436
same,glycan array binding signal (z-score),[21],-0.439
same,glycan array binding signal (z-score),[22],0.216
same,glycan array binding signal (z-score),[23],-0.404
same,glycan array binding signal (z-score),[24],2.06
same,glycan array binding signal (z-score),[25],0.553
same,glycan array binding signal (z-score),[26],2.85
same,glycan array binding signal (z-score),[27],0.804
same,glycan array binding signal (z-score),[28],1.53
same,glycan array binding signal (z-score),[29],0.896
same,glycan array binding signal (z-score),[30],0.087
same,glycan array binding signal (z-score),[31],1.6
same,glycan array binding signal (z-score),[32],0.52
same,glycan array binding signal (z-score),[33],2
same,glycan array binding signal (z-score),[34],2.06
same,glycan array binding signal (z-score),[35],0.607
same,glycan array binding signal (z-score),[36],1.23
same,glycan array binding signal (z-score),[37],1.73
same,glycan array binding signal (z-score),[38],1.07
same,glycan array binding signal (z-score),[39],1.76
same,glycan array binding signal (z-score),[40],2.28
same,glycan array binding signal (z-score),[41],1.61
same,glycan array binding signal (z-score),[42],1.18
same,glycan array binding signal (z-score),[43],1.99
same,glycan array binding signal (z-score),[44],2.33
same,glycan array binding signal (z-score),[45],-0.511
